The campaign covered roughly 320,000 compounds. About 7,600 (2.4%) were called active. Inconclusive results, whose numbers are uncertain, are shown with a selection of clear calls. Calls come from the whole dose curve; as a rule, active = well fitted activation curve with a large enough effect; inconclusive = small, poorly fitted or top-dose-only effect; inactive = no such curve, though single readings can be large or run the other way. No potency is given beside an inconclusive call; the fits are too rough.
Assay: qHTS Assay for NPC1 Promoter Activators; note: nearly all actives have a fitted effect of over 60% in size;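 for activation: reporter is driven by a mutant NPC1 promoter; % of control where 0% means no effect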
Conditions: Huh7 NPC1 promoter luciferase reporter, 24 h; series mostly up to 9.22 µM; activation: at the top concentration
Outline: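 In 1536-well qHTS, Huh7 cells harboring an NPC1 promoter–luciferase construct received compound for 24 h; activation was quantified by luminescence following luciferase reagent addition.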
Potency is the fitted concentration of half-maximal effect; tags give direction and shape of the fitted curve.

Which Potency does the source give for `CNC(=S)Nc1cccc(-c2cnc3ccccc3n2)c1` here?
The Potency was inconclusive [activator, single point].

With `Cc1ccc(NC(=O)CSc2nccn2Cc2ccco2)c(C)c1` as the molecule, how does the Potency read?
The Potency was active: 0.891 µM.

With `Cc1ccc(-c2cc(C(=O)NC3CCCCC3)no2)cc1` as the molecule, how does the Potency read?
The Potency was active: 2.51 µM.

Which Potency does the source give for `CC(=O)N1CCN(c2ccc(NC(=O)c3cccc(C)c3)cc2)CC1` here?
Its Potency is inconclusive [activator, partial curve].

Which Potency does the source give for `COc1ccccc1/C=N/Nc1nncc2ccccc12` here?
The Potency was inconclusive [activator, single point].

With `CCn1c(Cn2nnc(-c3ccccc3)n2)nnc1SCC(=O)Nc1ccc(C(C)=O)cc1` as the molecule, how does the Potency read?
Its Potency is inconclusive [activator, partial curve].

For `Nc1nc(Nc2ccc(Cl)cc2Cl)nc(C(F)(F)F)n1`, which Potency is on record?
The Potency was inconclusive [activator, partial curve].

Which Potency does the source give for `O=C(c1ccccc1)c1ccc(OC(=O)N2CCCC2)cc1` here?
The Potency was inconclusive [activator, single point].

Which “activation” value does the source give for `CCC(=O)N1CCN(c2ccc(NC(=O)c3ccc4c(c3)OCCO4)cc2)CC1` here?
The value was inactive: 0.634%.

Which Potency does the source give for `CC(C)c1ccc(C(=O)NC2=NCCS2)cc1` here?
The Potency was active: 0.562 µM.

With `Oc1ccccc1-c1cc(-c2ccc3c(c2)OCCO3)n[nH]1` as the molecule, how does the Potency read?
The Potency was active: 0.501 µM.

With `CC(=O)c1ccc(NC(=O)CN2CCCC2)cc1` as the molecule, how does the Potency read?
Its Potency is inconclusive [activator, single point].

Which Potency does the source give for `COc1cccc(C(=O)NNC(=S)NC2CCCCC2)c1` here?
The Potency was inconclusive [activator, partial curve].

For `Cc1ccc(-c2nc3ccccc3o2)cc1NC(=O)c1ccc2c(c1)OCO2`, which Potency is on record?
The Potency was inconclusive [activator, single point].

Which Potency does the source give for `c1ccc2nc(SCc3cn4ccccc4n3)cnc2c1` here?
The Potency was inconclusive [activator, single point].

Which Potency does the source give for `O=C(NCC1COc2ccccc2O1)c1ccccc1` (centres undefined) here?
Its Potency is active: 3.98 µM.

Which Potency does the source give for `Clc1ccccc1/C=N/NC1=Nc2cccc3cccc1c23` here?
Its Potency is inconclusive [activator, full curve].

With `FC(F)(F)c1cccc(-c2nc(-c3ccncc3)no2)c1` as the molecule, how does the Potency read?
The Potency was inconclusive [activator, partial curve].

For `COc1ccc(Cn2cccc(NC(=O)Nc3cccc(C#N)c3)c2=O)cc1`, which “activation” value is on record?
The value was inactive: -3.03%.

With `CSc1cccc(NC(=O)c2sc3nc4n(c(=O)c3c2C)CCC4)c1` as the molecule, how does the Potency read?
Its Potency is active: 3.55 µM.

With `C/C(=N\Nc1cccc2cccnc12)c1ccc[nH]1` as the molecule, how does the Potency read?
Its Potency is inconclusive [activator, single point].

Which Potency does the source give for `COc1ccc2nc(NC(=O)c3sc4nc(C)cc(C)c4c3N)sc2c1` here?
Its Potency is inconclusive [activator, full curve].

For `CCN1CCN(/C=N/c2nc3c(s2)CCCC3)CC1`, which Potency is on record?
Its Potency is inconclusive [activator, partial curve].

For `Cc1ccnc(N/N=C/c2ccccc2)n1`, which Potency is on record?
Its Potency is active: 2.51 µM.

With `CC(C)(C)c1ccc(-c2nc(-c3ccncc3)no2)cc1` as the molecule, how does the Potency read?
Its Potency is active: 0.398 µM.

With `CCOc1cccc(/C=C2\NC(=S)N(c3ccccc3)C2=O)c1O` as the molecule, how does the “activation” value read?
Its value is inactive: 0.867%.

With `CCC(C)(C)NC(=O)c1cc(S(=O)(=O)N2CCc3ccccc32)cn1C` as the molecule, how does the “activation” value read?
Its value is inactive: -6.92%.

For `Cc1ccc(OCCCn2ccnc2)cc1C`, which “activation” value is on record?
Its value is inactive: -0.632%.

With `COC(=O)c1sc(NC(=S)NC(=O)c2ccccc2C)nc1C` as the molecule, how does the Potency read?
Its Potency is inconclusive [activator, partial curve].

Which Potency does the source give for `O=C(NCCc1cccs1)c1ccc(Cl)c(Cl)c1` here?
The Potency was active: 3.16 µM.

Which Potency does the source give for `O=C(c1ccco1)N1CCN(Cc2csc(-c3ccccc3Cl)n2)CC1` here?
Its Potency is inconclusive [activator, partial curve].

Which Potency does the source give for `CS(=O)(=O)c1ccccc1C(=O)Nc1ccc(-c2nc3ccccc3[nH]2)cc1` here?
Its Potency is inconclusive [activator, single point].

Which “activation” value does the source give for `O=C(NCCCN1CCOCC1)c1cc(-c2ccc(Cl)s2)nc2ccccc12` here?
The value was inactive: -0.672%.

For `CN(C)c1ccc(N2C(=NC(=O)COc3ccccc3)SC3CS(=O)(=O)CC32)cc1` (centres undefined), which “activation” value is on record?
Its value is inactive: 3.47%.

Which Potency does the source give for `Oc1[nH]c2ccccc2c1N=Nc1nncc2ccccc12` here?
The Potency was inconclusive [activator, single point].

Which Potency does the source give for `CCN(CC)C(=O)C(=O)Nc1ccc(F)c(Cl)c1` here?
The Potency was inconclusive [activator, single point].

With `COc1ccc2oc(C(=O)N(C)CCOc3ccccc3)c(C)c2c1` as the molecule, how does the Potency read?
Its Potency is inconclusive [activator, partial curve].

Which “activation” value does the source give for `COc1ccc(N(CC(=O)Nc2cccc(N(C)S(C)(=O)=O)c2)S(=O)(=O)c2ccc(F)cc2)cc1` here?
The value was inactive: 1.06%.

With `O=C(/C=C/c1ccccc1Cl)Nc1ccncc1` as the molecule, how does the Potency read?
Its Potency is inconclusive [activator, partial curve].

With `CCCCn1nc2cc(C(=O)NCCc3cccs3)ccc2c1OCC` as the molecule, how does the Potency read?
The Potency was inconclusive [activator, single point].

Which “activation” value does the source give for `CCOc1cc([N+](=O)[O-])cc(/C=N/NC(=O)c2c(-c3ccccc3)noc2C)c1O` here?
The value was inactive: -3.69%.

With `O=C(O)CCCC(=O)Nc1ccc(N=Nc2ccccc2)cc1` as the molecule, how does the “activation” value read?
The value was inactive: -0.0707%.

With `Cc1ccc(NC(=O)COc2ccccc2C=O)cc1Cl` as the molecule, how does the Potency read?
The Potency was active: 2 µM.

Which Potency does the source give for `CCc1nc2oc3cc(OC)ccc3c(=O)c2c(=O)n1-c1ccccc1` here?
Its Potency is inconclusive [activator, single point].

For `C/C(=N/NC(=O)c1ccc2c(c1)OCO2)c1ccc(Br)s1`, which Potency is on record?
Its Potency is inconclusive [activator, partial curve].

Which Potency does the source give for `Cc1ccc(CCNC(=O)C2CCN(S(=O)(=O)c3ccc4c(c3)NC(=O)C(C)S4)CC2)cc1` (centres undefined) here?
The Potency was inconclusive [activator, single point].

Which Potency does the source give for `Cc1cc2oc(=O)cc(COC(=O)c3n[nH]c4ccccc34)c2cc1C` here?
The Potency was inconclusive [activator, single point].

For `O=C(CCc1nnc(CCc2c[nH]c3ccccc23)o1)NC1CCC1`, which Potency is on record?
The Potency was inconclusive [activator, partial curve].

For `N#Cc1ccsc1NC(=O)COC(=O)c1ccc2ccccc2c1`, which Potency is on record?
The Potency was inconclusive [activator, partial curve].

With `Cc1ccc(NC(=O)COc2ccccc2C(=O)Nc2ccccc2)cc1Cl` as the molecule, how does the “activation” value read?
The value was inactive: 4.47%.

Which Potency does the source give for `Cc1cc(C)nc(Nc2nc3ccccc3s2)n1` here?
The Potency was inconclusive [activator, single point].

For `CN1CCc2nc(NC(=O)c3cccc(S(=O)(=O)N4CCc5ccccc54)c3)sc2C1`, which “activation” value is on record?
The value was inactive: 0.169%.

For `O=C(Nc1ccc(Cl)cc1)OCc1ccccn1`, which Potency is on record?
Its Potency is active: 2.51 µM.

With `Cc1c(/C=C/C(=O)c2cccs2)cnn1C` as the molecule, how does the Potency read?
Its Potency is inconclusive [activator, single point].

For `Cc1ccc(-c2nc3cccnc3s2)cc1NS(C)(=O)=O`, which Potency is on record?
The Potency was inconclusive [activator, partial curve].

Which “activation” value does the source give for `O=C(/C=C/c1ccco1)NC(=S)Nc1cccc(-c2nc3ccccc3o2)c1` here?
Its value is inactive: -22.8%.

For `N#C/C(=C(/O)COC(=O)c1ccccc1O)c1nc2ccccc2s1`, which “activation” value is on record?
Its value is inactive: -3.14%.

With `O=C(CCCN1CCOCC1)c1ccc2c(c1)OCCO2` as the molecule, how does the Potency read?
The Potency was inconclusive [activator, partial curve].

Which Potency does the source give for `COc1cccc(-c2cc(C(=O)NCc3ccco3)no2)c1` here?
The Potency was active: 3.16 µM.

With `CN=c1scc(-c2ccccc2F)n1/N=C/c1ccc(O)c(O)c1O` as the molecule, how does the Potency read?
The Potency was inconclusive [activator, partial curve].

With `c1ccc2cc(OCc3nc4ccccc4[nH]3)ccc2c1` as the molecule, how does the Potency read?
Its Potency is active: 2.24 µM.

Which Potency does the source give for `CCOC(=O)c1sc(N)c(C(=O)OCC)c1C` here?
Its Potency is inconclusive [activator, single point].

Which Potency does the source give for `CCCCn1c(=O)c(CC(C)=O)nc2ccccc21` here?
The Potency was inconclusive [activator, single point].

Which “activation” value does the source give for `CCn1c(N)c(C(=O)COC(=O)CCc2nc3ccccc3c(=O)[nH]2)c(=O)[nH]c1=O` here?
The value was inactive: -2.33%.

Which Potency does the source give for `Cc1ccc(O)c(NC(=O)c2noc3c2CCCCC3)c1` here?
The Potency was active: 2.82 µM.

With `O=C(Nc1ccc2c(c1)OCO2)c1cc(Cl)ccn1` as the molecule, how does the Potency read?
Its Potency is active: 1.78 µM.

Which Potency does the source give for `CCOc1ccc(-n2nnnc2-c2nc3ccccc3s2)cc1` here?
Its Potency is inconclusive [activator, partial curve].

With `Cc1cc(Cl)c(S(=O)(=O)N2CCN(c3ccc(F)cc3)CC2)cc1OCC(=O)NC1CCCCC1` as the molecule, how does the “activation” value read?
Its value is inactive: -28.8%.

For `CC(=O)c1sc(N/N=C2\CC3CC2C(C)C3(C)C)nc1C` (centres undefined), which Potency is on record?
Its Potency is inconclusive [activator, partial curve].

Which “activation” value does the source give for `O=C1CC(c2ccccc2)CC(O)=C1C=Nc1ccccc1O` (centres undefined) here?
The value was inactive: -2.21%.

For `Cc1cccc(-c2nc(C#N)c(N3CCCCC3)o2)c1`, which Potency is on record?
The Potency was inconclusive [activator, single point].

Which “activation” value does the source give for `O=C(Nc1cccc(S(=O)(=O)NC2=NCCC2)c1)c1ccc(OC(F)F)cc1` here?
The value was inactive: -2.97%.

With `COCCN1CCc2c(C)nc3c(-c4ccc(OC)c(OC)c4)cnn3c21` as the molecule, how does the Potency read?
Its Potency is inconclusive [activator, single point].

Which Potency does the source give for `O=C(COc1ccccc1)Nc1cccc(-c2ccc(N3CCOCC3)nn2)c1` here?
Its Potency is active: 1.78 µM.

With `COc1ccccc1OCc1ccc(C(=O)N/N=C/c2ccco2)cc1` as the molecule, how does the “activation” value read?
The value was inactive: -1.25%.

For `CCc1ccc(C(=O)NNc2ccc(Cl)cc2)cc1`, which Potency is on record?
The Potency was inconclusive [activator, full curve, poor fit].

With `O=C(CCC(=O)N1CCN(c2ccc(O)cc2)CC1)c1cccs1` as the molecule, how does the “activation” value read?
Its value is inactive: 28.6%.

With `COC(=O)c1cc(C)nc2c1C(=O)C(=O)C=C2N1CCOCC1` as the molecule, how does the “activation” value read?
Its value is inactive: -40.9%.

With `O=C(OCC(=O)c1c[nH]c2ccccc12)c1cc2ccccc2cc1O` as the molecule, how does the “activation” value read?
Its value is inactive: 0.981%.
